# Measured values as given in PubChem BioAssay AID720708 (National Center for Advancing Translational Sciences (NCATS), 2013).
# The campaign covered roughly 360,000 compounds. About 660 (0.18%) were called active. The inconclusive results got no clear call from the source; some entries with a clear call stand among them for comparison. Calls follow the shape of the dose curve; as a rule, active = well fitted inhibition curve with a large enough effect; inconclusive = small, poorly fitted or top-dose-only effect; inactive = no such curve, though single readings can be large or run the other way. No potency is given beside an inconclusive call; the fits are too rough.
# Molecular target: Rap guanine nucleotide exchange factor 4 (Homo sapiens) (UniProt Q8WZA2)
# Sequence of UniProt Q8WZA2 (Q8WZA2 whole entry, looked up): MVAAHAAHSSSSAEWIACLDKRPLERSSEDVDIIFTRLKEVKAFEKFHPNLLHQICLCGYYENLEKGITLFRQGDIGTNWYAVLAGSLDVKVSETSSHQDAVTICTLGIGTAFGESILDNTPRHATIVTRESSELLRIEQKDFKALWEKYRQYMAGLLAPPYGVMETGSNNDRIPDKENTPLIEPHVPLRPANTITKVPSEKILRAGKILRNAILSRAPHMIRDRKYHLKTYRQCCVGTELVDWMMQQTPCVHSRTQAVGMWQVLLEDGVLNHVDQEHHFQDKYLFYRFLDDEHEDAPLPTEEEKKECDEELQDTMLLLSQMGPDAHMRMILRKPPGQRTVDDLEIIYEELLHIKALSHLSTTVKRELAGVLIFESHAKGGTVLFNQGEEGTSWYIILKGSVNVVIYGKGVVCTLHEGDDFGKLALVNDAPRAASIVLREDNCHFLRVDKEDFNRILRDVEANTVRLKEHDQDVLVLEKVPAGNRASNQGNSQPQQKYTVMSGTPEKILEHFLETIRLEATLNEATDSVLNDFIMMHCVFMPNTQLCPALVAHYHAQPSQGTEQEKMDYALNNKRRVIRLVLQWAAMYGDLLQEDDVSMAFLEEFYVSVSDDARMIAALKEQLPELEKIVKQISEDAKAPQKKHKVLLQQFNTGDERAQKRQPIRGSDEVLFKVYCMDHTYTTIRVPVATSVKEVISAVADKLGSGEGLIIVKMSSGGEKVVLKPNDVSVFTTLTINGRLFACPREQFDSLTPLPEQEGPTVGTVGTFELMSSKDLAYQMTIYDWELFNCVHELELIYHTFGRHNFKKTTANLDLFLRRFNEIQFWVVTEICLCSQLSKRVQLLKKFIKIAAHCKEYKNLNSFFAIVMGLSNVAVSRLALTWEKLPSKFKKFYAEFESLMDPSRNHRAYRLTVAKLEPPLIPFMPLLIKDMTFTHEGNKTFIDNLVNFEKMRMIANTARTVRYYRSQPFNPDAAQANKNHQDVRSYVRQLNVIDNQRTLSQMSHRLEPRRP
# Experiment: qHTS for Antagonist of cAMP-regulated guanine nucleotide exchange factor 2 (EPAC2): primary screen; also: nearly all actives have a fitted effect of over 45% in size
# Settings: EPAC2 GEF exchange of Rap1B-BODIPY-GDP, fluorescence; series mostly up to 114 µM
# Potency is read from the fitted curve at half-maximal effect; tags tell the direction and shape of the fitted curve.
row,SMILES,Potency
1,COCCOC(=O)C(C#N)c1nc2ccccc2nc1N1CCN(Cc2ccccc2)CC1 (stereo not given),"inconclusive [inhibitor, single point]"
2,CCOc1ccccc1NC(=O)CSc1nnnn1-c1ccccc1,"inconclusive [inhibitor, single point]"
3,O=S(=O)(NC1=NCCCCC1)c1ccc2sc(NS(=O)(=O)c3ccc4ccccc4c3)nc2c1,"inconclusive [inhibitor, full curve, poor fit]"
4,CN(CC1CCCN(CCc2cccc(C(F)(F)F)c2)C1)C(=O)c1ccco1 (stereo not given),inactive
5,COC(=O)C1=CN(C(C)C)C=C(C(=O)OC)C1c1cccc(OC)c1,"inconclusive [inhibitor, single point]"
6,COCCNC(=O)/C(C#N)=C/c1cccc(/C=C(\C#N)C(=O)NCCOC)c1,inactive
7,COc1ccc(C(=O)C(=NNc2ccccc2)c2ccc(OC)cc2)cc1,"inconclusive [inhibitor, full curve, poor fit]"
8,S=C(NCC1CCCCC1)Nc1ccc(Oc2ccccc2)cc1,inactive
9,COc1ccc(CN(C)C(=O)c2cccc(Oc3ccccc3)c2)c(OC)c1OC,"inconclusive [inhibitor, partial curve]"
10,O=C(COC(=O)c1ccccc1Br)NCCC1=CCCCC1,inactive
11,O=C(CCn1c(=O)c2ccccc2n(Cc2cccc([N+](=O)[O-])c2)c1=O)N1CCc2ccccc2C1,"inconclusive [inhibitor, full curve]"
12,Cc1cc(C2(c3ccc(O)c(C)c3)C(=O)N(C)c3ccc(Br)cc32)ccc1O,"inconclusive [inhibitor, partial curve]"
13,COC(=O)c1cc(S(=O)(=O)Nc2cc(OC)cc(OC)c2)cn1C,"inconclusive [inhibitor, full curve, poor fit]"
14,Cc1ccc(CN2CCSCC2)cc1,inactive
15,Cc1cc2ccccn2c1C(=O)c1ccc(NN)c([N+](=O)[O-])c1,"inconclusive [inhibitor, partial curve]"
16,CC(NS(=O)(=O)OCC(Cl)(Cl)Cl)c1ccc(C(C)(C)C)cc1 (stereo not given),"inconclusive [inhibitor, partial curve]"
17,Cc1cccc(NC(=O)c2ccc(OCC3CCCO3)cc2)c1C (stereo not given),inactive
18,CCN(CCO)c1ccc(N=Nc2cc(C)[nH]n2)cc1,"inconclusive [inhibitor, partial curve]"
19,COc1ccc(-c2nc3ccccc3nc2-c2ccccc2)cc1,"inconclusive [inhibitor, partial curve]"
20,CSc1ccccc1NC(=O)CN1CCN(S(=O)(=O)c2ccccc2[N+](=O)[O-])CC1,inactive
21,Cc1ccc(C(=O)N2[C@@H]3CN(C)C(=O)[C@@]2(C)[C@H]2C(=O)N(C)C(=O)[C@@H]32)cc1,inactive
22,CC(=O)Nc1cccc(NC(=O)CSc2ncc(C(=O)Nc3ccccc3)c(=O)n2C)c1,"inconclusive [inhibitor, single point]"
23,COC(=O)c1ccccc1NC1=C/C(=N\S(=O)(=O)c2ccc(C(=O)O)cc2)c2ccccc2C1=O,"inconclusive [inhibitor, single point]"
24,O=C(Nc1ccc(Cl)cc1F)c1cccc2ccccc12,"inconclusive [inhibitor, full curve, poor fit]"

row,SMILES,Potency
1,COc1cc(C(=O)NCCOc2cc(C)ccc2C(C)C)cc(OC)c1OC,"inconclusive [inhibitor, partial curve]"
2,COc1ccc2c(c1)C(c1ccc(Cl)cc1)NC(=O)C2 (stereo not given),"inconclusive [inhibitor, full curve, poor fit]"
3,CCc1ccc(OCC2c3cc(OC)c(OC)cc3CCN2C(=S)NC)cc1 (stereo not given),"inconclusive [inhibitor, partial curve]"
4,O=C(O)CN1C(=O)/C(=C\c2ccccc2OCc2ccccc2)SC1=S,"inconclusive [inhibitor, partial curve]"
5,Cc1cc(C)c2c(CN3CCCC3)cc(=O)oc2c1,"inconclusive [inhibitor, partial curve]"
6,CC(C)(C)C(=O)/C(=C/c1ccc(Cl)cc1)n1cncn1,"inconclusive [inhibitor, partial curve]"
7,Cc1nc(N2C(=O)C(=O)/C(=C(/O)c3ccccc3)C2c2ccco2)sc1C (stereo not given),inactive
8,COCCCn1c(=O)c2ccccc2n(Cc2cccc(C)c2)c1=O,"inconclusive [inhibitor, partial curve]"
9,Cc1noc(C)c1C(c1ccccc1)c1ccccc1,"inconclusive [inhibitor, partial curve]"
10,CCOC(=O)C[C@H]1c2ccc(C(F)(F)F)cc2S(=O)(=O)N1c1ccccc1,"inconclusive [inhibitor, partial curve]"
11,C=CC[C@H](CC(=O)NCCO)C(=O)NCCOC(=O)[C@@H](CC=C)CC(=O)OC(C)(C)C,inactive
12,C#CCN1Cc2ccccc2Oc2cc(Br)ccc2S1(=O)=O,"inconclusive [inhibitor, full curve]"
13,CC(/C=C1\SC(=S)N(CC(=O)O)C1=O)=C\c1ccccc1,"inconclusive [inhibitor, partial curve]"
14,Cc1cc(C)c2c(=O)c(C#N)coc2c1,"inconclusive [inhibitor, partial curve]"
15,CN1CCN(CCCN2c3ccccc3Sc3ccc(Cl)cc32)CC1,active: 12.6 µM
16,COc1cc(OC)c2c(-c3ccccc3)cc(=O)oc2c1C(CC(=O)N1CCOCC1)c1ccc2c(c1)OCO2 (stereo not given),"inconclusive [inhibitor, full curve]"
17,COc1ccccc1NC(=O)/C=C\C(=O)O,inactive
18,O=C(NCC1CCCO1)C(=O)N/N=C/c1cc(Cl)ccc1O (stereo not given),inactive
19,CC(C)CCNc1c(-c2cccs2)nc2ccccn12,active: 44.7 µM
20,CCN(CC)c1ccc(SS(=O)(=O)O)cc1,inactive
21,CC1(C(=O)NS(=O)(=O)c2ccc3ccccc3c2)CCN1C(=O)C1(c2ccc(Cl)cc2)CCC1 (stereo not given),"inconclusive [inhibitor, partial curve]"
22,O=C1S/C(=C\c2ccc(O)c([N+](=O)[O-])c2)C(=O)N1Cc1cccc([N+](=O)[O-])c1,"inconclusive [inhibitor, partial curve]"
23,COc1ccc(-c2c(-c3ccc(OC)nc3)c3ccccc3n2C)cc1,"inconclusive [inhibitor, partial curve]"
24,Cc1ccc(N(C)C(=O)c2ccc3c(Cl)c4c(nc3c2)CCC4)cc1C,"inconclusive [inhibitor, partial curve]"

row,SMILES,Potency
1,O=C(OCn1ncc(Br)c(Br)c1=O)c1ccc(F)cc1,inactive
2,CC(NC(=S)Nc1ccccc1)C1COc2ccccc2O1 (stereo not given),"inconclusive [inhibitor, single point]"
3,O=C(c1cc(C2CC2)on1)N1CCN(c2ccccc2)CC1,inactive
4,COc1ccc(N(CC(=O)Nc2cccc3ccccc23)S(C)(=O)=O)cc1,"inconclusive [inhibitor, single point]"
5,CCOc1cc(/C=N/Nc2ccc(C(=O)O)cc2)ccc1OC(=O)c1ccccc1C,"inconclusive [inhibitor, partial curve]"
6,CCOc1ccc(S(=O)(=O)N2CCCCC2)c2ccccc12,"inconclusive [inhibitor, partial curve]"
7,CC12CC(NC(=O)N1c1cccc(C(=O)N3CCN(c4ccccc4)CC3)c1)c1ccccc1O2 (stereo not given),inactive
8,CCOC(=O)C1=NNC(C(=O)c2ccc(Cl)cc2)C1c1ccc(OC)cc1 (stereo not given),"inconclusive [inhibitor, full curve, poor fit]"
9,CCc1nc2c(OCc3ccc(Cl)cc3)cccn2c1N(C)C(=O)c1ccc(C)cc1,"inconclusive [inhibitor, partial curve]"
10,O=C(CSc1nc(-c2ccccc2)nc2ccc(F)cc12)Nc1cccc(C(=O)O)c1,inactive
11,Cc1c(N=C2C=CC(=O)c3ccccc32)c(=O)n(-c2ccccc2)n1C,inactive
12,Cc1ccc(N2CCN(S(=O)(=O)N3CCCCC3)CC2)c(C)c1,"inconclusive [inhibitor, full curve, poor fit]"
13,Cc1ccc([N+](=O)[O-])cc1S(=O)(=O)Nc1ccc(O)c(Sc2ncn[nH]2)c1,inactive
14,O=C1CC(SC(=S)C2CCCC2=O)C(=O)N1 (stereo not given),inactive
15,CCOc1c(OC)cccc1C1CC(=O)Nc2cc(OC)c(OC)cc21 (stereo not given),"inconclusive [inhibitor, single point]"
16,CCCCc1nc(Cl)c(C#N)c2c1CSC(C)(C)C2,"inconclusive [inhibitor, partial curve]"
17,CCOc1cc(CNc2ccc(S(N)(=O)=O)cc2)ccc1OCC(=O)NC(C)(C)C,"inconclusive [inhibitor, single point]"
18,COc1ccc(NC(=O)c2cccs2)cc1,inactive
19,COC(=O)c1cc2ccsc2n1Cc1ccccc1F,"inconclusive [inhibitor, partial curve]"
20,O=C1C=C(NCc2ccccc2)c2ccccc2C1=O,"inconclusive [inhibitor, partial curve]"
21,CCC(=O)Oc1ccc2c(c1)O/C(=C\c1ccco1)C2=O,"inconclusive [inhibitor, full curve]"
22,O=C(Nc1ccc(C(=O)O)cc1)/C(=C\C=C\c1ccccc1)NC(=O)c1ccccc1Br,inactive
